In PubChem BioAssay AID1745853 (National Center for Advancing Translational Sciences (NCATS), 2022) one finds activity change, negative = inhibition data, which are given here for 29 compounds.

What all share (assay): Primary Screen for Target Class Profiling of Small Molecule Inhibitors of Methyltransferases
Test [1] deals with Glycine N-methyltransferase (Homo sapiens) (UniProt Q14749). The note with it: purified enzyme, MTase-Glo SAH luminescence; measured here: GNMT inhibition; at 40 µM; stronger effect = lower value. An outline of the steps: (§1)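 Each enzyme was assayed with SAM and its substrate. SAH formation detected by MTase-Glo luminescence; single-point 40 uM screen[…].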
In test [2] the target is Guanidinoacetate N-methyltransferase (Homo sapiens) (UniProt Q14353). Conditions: purified enzyme, MTase-Glo SAH luminescence; measured here: GAMT inhibition; at 40 µM; stronger effect = lower value. In a few lines:
as §1

The target of test [3] is Histamine N-methyltransferase (Homo sapiens) (UniProt P50135). Conditions: purified enzyme, MTase-Glo SAH luminescence; measured here: HNMT inhibition; at 40 µM; stronger effect = lower value. In a few lines: as §1
In test [4] the target is Nicotinamide N-methyltransferase (Homo sapiens) (UniProt P40261). Conditions: purified enzyme, MTase-Glo SAH luminescence; measured here: NNMT inhibition; at 40 µM; stronger effect = lower value. An outline of the steps: as §1
The target in test [5] is Phenylethanolamine N-methyltransferase (Homo sapiens) (UniProt P11086). Conditions: purified enzyme, MTase-Glo SAH luminescence; measured here: PNMT inhibition; at 40 µM; stronger effect = lower value. In a few lines: as §1

Values joined by “and” are separate entries in the source; they are usually repeats but may differ in a detail not shown here. Equal entries are not always repeated. This is one part of the list. Shown are side measurements of this screen, not its main read-out; they come without a call.
% is scaled to controls: 0 for no effect and ±100 for the full control effect.

Regarding `CCOC(=O)c1cc2n(n1)CC(C)(C(=O)NCCOC)N(c1ccc(OC)cc1)C2=O` (stereo not given), the activity change, negative = inhibition came to 1.65% in test [1]; 0.945% in test [2]; 5.22% in test [3]; 0.537% in test [4]; 2.73% in test [5].

For `O=C1CN(Cc2ccc(F)cc2Cl)S(=O)(=O)c2ccccc2N1Cc1ccc(F)cc1`, the activity change, negative = inhibition was 14.4% in test [1]; 0% in test [2]; 9.94% in test [3]; -1.23% in test [4]; 1.75% in test [5].

With `N#CC1C(=O)N=C(c2cc(Cl)ccc2O)C=C1c1cc(OCc2ccccc2)cc(OCc2ccccc2)c1` (stereo not given), the activity change, negative = inhibition is -8.83% in test [1]; -27.8% in test [2]; 8.51% in test [3]; -25% in test [4]; -2.92% in test [5].

Regarding `C=C1C(=O)O[C@@H]2C[C@H](C)[C@@H]3CC(=O)C(C)=C3C[C@H]12`, the activity change, negative = inhibition in test [1] is 2.07%; in test [2], 3.42%; in test [3] it was 9.23%; in test [4], -6.55%; in test [5], 6.04%.

On to `CCCCNc1nc2c(-c3ccc(C)cc3)nnn2c2ccccc12`, for which the activity change, negative = inhibition was 5.87% in test [1]; 2.41% in test [2]; 2.85% in test [3]; 4.19% in test [4]; -0.189% in test [5].

Turning to `Cc1ccc(Cn2c(=O)c3ccc(C(=O)NC(C)C)cc3n3c(=O)n(CC(=O)NC(C)C)nc23)cc1`, the activity change, negative = inhibition in test [1] was 6.16%; in test [2], 4.97%; in test [3] it was 12.6%; in test [4] it was 3.76%; in test [5], 5.99%.

With `Cc1cccc(N2CCN(S(=O)(=O)c3ccc4[nH]c(=O)[nH]c4c3)CC2)c1C`, the activity change, negative = inhibition in test [1] was 10.9%; in test [2], 0%; in test [3], 4.26%; in test [4] it was -8.29%; in test [5], 0.675%.

Regarding `NCC(O)C1CCCCCCC1` (stereo not given), the activity change, negative = inhibition in test [1] is 2.78%; in test [2], 8.83%; in test [3] it was 7.01%; in test [4] it was -7.67%; in test [5], -41.2%.

As to `O=C(OCC1=CC(Cl)C(O)C(OC(=O)c2ccccc2)C1O)c1ccccc1` (stereo not given), the activity change, negative = inhibition in test [1] is 0%; in test [2], 6.51%; in test [3], 6.31%; in test [4], -7.28%; in test [5], 4.45%.

Consider `CN1CCN(C(=O)N2CCC3(CCCN(C4CCOCC4)C3=O)C2)CC1` (stereo not given), for which the activity change, negative = inhibition in test [1] was 1.14%; in test [2], -0.613%; in test [3], 1.81%; in test [4], -3.59%; in test [5], 1.38%.

On to `COc1cccc(CN2CCC(Oc3ccc(-c4noc(C5CC5)n4)cc3)C2)c1` (stereo not given), for which the activity change, negative = inhibition in test [1] was -9.9%; in test [2], -5.82%; in test [3], -14.4%; in test [4], -21.3%; in test [5], -9.48%.

Consider `CCc1cn(C[C@H](NC(=O)C2CCCC2)C(=O)O)c(=O)[nH]c1=O`, for which the activity change, negative = inhibition is -0.297% in test [1]; 2.06% in test [2]; 1.99% in test [3]; -1.09% in test [4]; -0.732% in test [5].

In the case of `COc1cc2c(cc1OC)N1C(=O)C[C@]34C=CCN5CC[C@@H]2[C@@H](CC3)[C@]514`, the activity change, negative = inhibition was -1.75% in test [1]; 8.98% in test [2]; 6.45% in test [3]; -56.1% in test [4]; 3.05% in test [5].

With `CC(C)CCNC(=O)c1cc2n(n1)CC(C)(C(=O)NCc1ccc(F)cc1)N(C)C2=O` (stereo not given), the activity change, negative = inhibition is 4.7% in test [1]; 0.686% in test [2]; -0.534% in test [3]; 6.57% in test [4]; 1.79% in test [5].

Regarding `COC(=O)C[C@@H]1C(C(=O)O)=CO[C@@H](O[C@@H]2O[C@H](CO)[C@@H](O)[C@H](O)[C@H]2O)/C1=C\COC(=O)/C=C\c1ccccc1`, the activity change, negative = inhibition was 0% in test [1]; -11.1% in test [2]; -1.54% in test [3]; -22.3% in test [4]; -1.49% in test [5].

Turning to `CC1(C(=O)NC2CCCCC2)Cn2c(ccc2-c2ccco2)C(=O)N1CCCN1CCOCC1` (stereo not given), the activity change, negative = inhibition in test [1] worked out at 1.98%; in test [2], 4.86%; in test [3], 4.28%; in test [4] it was 8.25%; in test [5], 0.688%.

For the compound `Cn1cnc([S+](=O)([O-])N2CCN(C(=O)N3CC4CC(C3)[C@H]3CCCC(=O)N3C4)CC2)c1` (stereo not given in full), the activity change, negative = inhibition in test [1] is -7.35%; in test [2], -13.4%; in test [3] it was -5.58%; in test [4], -16%; in test [5], -16%.

With `O=C(O)c1cc(N(Cc2ccc(C3CCCCC3)cc2)C(=O)c2ccc(Oc3ccccc3)cc2)ccc1O`, the activity change, negative = inhibition was -7.63% in test [1]; -55.1% in test [2]; -5.85% in test [3]; -94.8% in test [4]; -54.4% in test [5].

`CCO[C@H]1CN(Cc2cnc(SCc3ccccc3)nc2)C[C@@H]1O`: the activity change, negative = inhibition in test [1] was -6.88%; in test [2], -9.52%; in test [3] it was -2.85%; in test [4], -15.6%; in test [5], -13.2%.

With `CN1CCC(=C2c3ccccc3C=Cc3ccccc32)CC1`, the activity change, negative = inhibition was 10.1% in test [1]; 14.3% in test [2]; -9.76% in test [3]; -15.1% in test [4]; 1.3% in test [5].

Consider `CC1(C(=O)NC2CCCCCC2)Cn2c(c(-n3cccc3)c3ccccc32)C(=O)N1Cc1cccnc1` (stereo not given), for which the activity change, negative = inhibition in test [1] was -3.72%; in test [2], 4.22%; in test [3] it was 5.67%; in test [4] it was -11.7%; in test [5] it was 0.894%.

Take `CCCn1c(=O)c2ccc(Cl)cc2n2c(=O)n(CC(=O)c3ccc(C)cc3)nc12`: the activity change, negative = inhibition was -0.458% in test [1]; 0.696% in test [2]; -0.645% in test [3]; 2.71% in test [4]; 1.81% in test [5].

As to `C[C@@H]1CN(Cc2cc(C(N)=O)oc2C(C)(C)C)CC[C@@]1(O)C1CCC1`, the activity change, negative = inhibition was -4.81% in test [1]; -3.12% in test [2]; -3.13% in test [3]; -6.77% in test [4]; -3.16% in test [5].

As for `O=C(CSc1nnc2n(Cc3ccc(F)cc3)c(=O)c3ccccc3n12)NCc1ccccc1`, the activity change, negative = inhibition in test [1] was found to be 1.57%; in test [2] it was 0%; in test [3], 9.21%; in test [4], 2.03%; in test [5], 2.18%.

For `COc1cc2c(Nc3ccc(NC(=O)c4ccccc4)cc3)ncnc2cc1OCCCN1CCOCC1`, the activity change, negative = inhibition in test [1] was -15%; in test [2], 8.38%; in test [3], -10.9%; in test [4], -11.2%; in test [5], -2.64%.

Consider `CC(CN1C(=O)c2cc3ccccc3n2CC1(C)C(=O)NCc1ccccc1)c1ccccc1` (stereo not given), for which the activity change, negative = inhibition in test [1] is 1.26%; in test [2], 4.47%; in test [3], -12%; in test [4], 1.77%; in test [5], -3.89%.

For the compound `Cc1ccc(N2C(=O)c3ccc(-c4ccco4)n3CC2(C)C(=O)NC2CCCC2)cc1Cl` (stereo not given), the activity change, negative = inhibition is -2.01% in test [1]; 3.04% in test [2]; 2.44% in test [3]; -0.6% in test [4]; -4.59% in test [5].

In the case of `CC(C)Cn1c(=O)c2ccccc2n2c(=O)n(CC(=O)Nc3ccccc3F)nc12`, the activity change, negative = inhibition in test [1] was -2.61%; in test [2], -1.16%; in test [3], 2.72%; in test [4] it was -11.4%; in test [5], -2.92%.

With `CC(=O)Nc1ccc(C(=O)Nc2ccccc2N)cc1`, the activity change, negative = inhibition in test [1] is 8.26% and -7.59%; in test [2], 7.1%; in test [3], 6.08% and 0.386%; in test [4], -4.65% and -7.67%; in test [5] it was 4.77% and 25.3%.
